Paper PMC5515408
Some of the results follow. At the low end of the ranking, values are background and their order means little.

System: MYC (p64) + MAX (p21), in MYC:MAX
Assay: protein-binding microarray (anti-MAX antibody)
Conditions: PBM: 15 mM Tris-HCl pH 7.5, 100 mM KCl, 0.075% NP40, 7.5 mM beta-mercaptoethanol, 375 ng/ul BSA, 8 ng/ul poly(dA-dT):(dA-dT), 550 ng complex, 60 min, room …; high values mean tight binding; double strand, one strand shown; sequences stand for … in CCGGC…TTAATAGCTAAGATTACTATATCGACG

Sequence | binding signal (log2 normalized fluorescence)
TGAGCCGAGGTA | -0.0395
TGAAAAGAGGTA | -0.00138
TGATAGAGAGTA | -0.00961
TGAAGGCCGGTA | -0.224
TGAATGACGGTA | 0.101
CAGCACGTGGTA | 0.793
TGATACGTGGGA | 0.327
TGATGCCTTGTA | 0.172
TGACCCTGGGTA | 0.048
TGACGCACGGTA | 0.383
TGACAACGTGTA | 0.432
TGACAGCGAGTA | 0.152
TGAACCAGAGTA | -0.211
TGAAACCGAGTA | 0.148
TGACCCCCAGTA | 0.19
TGATATCGGGTA | -0.158
TGGCACGTCGGA | 0.155
TGACAAGTAGTC | -0.0371
TGAATCGGAGTA | -0.207
TGACACGTTCCA | 0.522
TGGCACCTGGTA | 0.448
TGAACGGAAGTA | 0.0165
TGATCCGATGTA | 0.0271

Sequence | binding signal (log2 normalized fluorescence)
TGAAGGGAAGTA | -0.154
TGAAGAAGTGTA | 0.104
TCGCACGTGGTA | 0.665
TGATCGTGCGTA | 0.142
TGAGGTCACGTA | 0.191
TGATCAACGGTA | 0.15
TGACGTAACGTA | 0.0723
TGATTACGAGTA | 0.0125
TGATGCGTCGTA | 0.187
TGAAGGGAGGTA | 0.069
TGAAAGCGCGTA | 0.165
TGAGACGTGTTA | 0.394
CATGCCCGAAAC | 0.366
TGAAAGGATGTA | 0.21
TAGCAGCCATGG | 0.105
TGACACCCTGTA | 0.323
TGATATGCGGTA | 0.226
TGAGTTCCTGTA | -0.0293
TGAATGGTCGTA | -0.0893
CGACACGTGATA | 0.927
TGATCCCCAGTA | -0.00652
TGCATCGTGGTA | 0.636
TGATAACGGGTA | 0.0896

Sequence | binding signal (log2 normalized fluorescence)
TGAGACGTCGTA | 0.0945
TGACACGTGGTT | 0.795
TGATTCGGTGTA | -0.136
TGATCGCCCGTA | -0.005
TGAGTAAACGTA | -0.156
TGACACGTCTGA | 0.468
TGACGCATAGTA | 0.204
TGACACCGGGTA | 0.135
TGGCACGAGGTT | 0.697
TGTCATGTAGTA | 0.231
TGAGCGCAAGTA | 0.175
TGACTGCGAGTA | 0.161
TGATGGGTAGTA | -0.0659
TGAATGTGCGTA | 0.43
TGACCGGAGGTA | -0.0398
TGACATGTGGCA | 0.595
TGAAGACCCGTA | 0.182
TGATATAACGTA | 0.0713
TGAGAATGTGTA | 0.241
TGAGCCTGAGTA | -0.067
TGATTTTGAGTA | -0.16
TGAAATGACGTA | 0.175
TGACACAACGTA | 0.345

Sequence | binding signal (log2 normalized fluorescence)
TGAGAAGTAGTA | -0.0932
TGATTAATCGTA | 0.00748
GCGGTTGGATAG | 0.223
TGAGGGGAAGTA | 0.331
TGAGTTTATGTA | 0.0235
TGAATGTATGTA | 0.204
CGACCCGTGGTA | 0.391
TGACACGCTTTA | 0.541
TGATTCCTCGTA | 0.216
TGATTCATGGTA | 0.183
TGAAATTTGGTA | -0.229
TGATTGATAGTA | -0.193
TGATATAAGGTA | -0.0417
TGAACGCAAGTA | 0.302
TGAAGGAAAGTA | 0.116
TGATAAGTGGGA | -0.133
TGACTCTGGGTA | -0.215
TGAACAGAAGTA | 0.21
TGAGGTGCTGTA | 0.228
GAACACGTAGTA | 0.322
TGACCCTACGTA | 0.137
TGACAACGGGTA | 0.226
TGATCGATTGTA | 0.0332

Sequence | binding signal (log2 normalized fluorescence)
TGAATGTTTGTA | 0.282
TGAGGCGAGGTA | 0.237
TGACACCTCTTA | 0.403
TGAGGACAAGTA | 0.00983
TGACCATGCGTA | 0.657
TGAAGTGTCGTA | 0.0163
TGATTATAGGTA | -0.12
TGATCTGAGGTA | -0.0711
TGACCCGCCGTA | 0.264
TGAACACTGGTA | 0.267
TGACTCGCTGTA | 0.236
TGATGGAACGTA | 0.186
TGACTTCTCGTA | 0.0406
TGAATACGCGTA | 0.156
TGAGCTAAGGTA | -0.158
GGACACGAGGTA | 0.562
TGAGACTTCGTA | -0.101
TGACACGTCTTA | 0.308
TGACACGCGCTA | 0.811
TGACTACATGTA | 0.419
TGACTTGAGGTA | 0.196
TGATCTGTCGTA | 0.065
TGGCACAGGGTA | 0.186

Sequence | binding signal (log2 normalized fluorescence)
TGACAATTTGTA | 0.00323
TGACGGCCGGTA | -0.136
TGAATTTTTGTA | -0.151
TGATACAATGTA | 0.174
GTGCACGTGGTA | 0.856
TGATGTTCAGTA | 0.192
TGAGGGCCTGTA | 0.145
TGACCGACCGTA | 0.192
TGATCTAGTGTA | -0.0943
TGAGGCCAAGTA | -0.135
TGAAAAAGGGTA | -0.0246
TGACAAGTGGCA | 0.332
TGACTTCGTGTA | 0.39
TGAGATGAGGTA | 0.0191
TTGCACGTGGTA | 1.01
TGAGTCACGGTA | 0.169
TGCTACGTGGTA | 0.375
TGAAACTTCGTA | 0.0456
TGAAAGCATGTA | 0.491
TGACAGACCGTA | 0.273
TGATCTCCAGTA | 0.0575
TGATAAGTCGTA | -0.0999
